Laboratory results published in the antibiotic and cytotoxicity screens of Wong et al. (2023).
The other results are listed elsewhere or left out.

Key:
HSkMC = human skeletal muscle cells; assay: cytotoxicity call (relative viability < 0.9); conditions: 10 µM
S. aureus RN4220 = assay: growth inhibition call (relative growth <= 0.2); conditions: 50 µM

SMILES | cytotoxicity call (HSkMC) | growth inhibition call (S. aureus RN4220)
C[C@@H]1CN([C@@H](C)CO)C(=O)c2cc(NC(=O)Nc3ccc(C(F)(F)F)cc3)ccc2O[C@@H](C)CCCCO[C@@H]1CN(C)Cc1ccc(C(F)(F)F)cc1 | inactive | inactive
CC(C)(C)N1C[C@H](C(=O)O)CC1=O | inactive | inactive
C[C@H](CO)N1C[C@H](C)[C@@H](CN(C)Cc2ccc(Oc3ccccc3)cc2)Oc2ccc(NC(=O)Nc3ccc(C(F)(F)F)cc3)cc2C1=O | active | inactive
Cc1ccccc1S(=O)(=O)N1C[C@@H](O)COC[C@@H]2O[C@@H](CC(=O)N3CCOCC3)CC[C@H]21 | inactive | inactive
COc1ccccc1N1CCN(c2ncc(C(=O)N3CCN(c4cccc(Cl)c4)CC3)c3ccccc23)CC1 | inactive | inactive
C[C@@H]1CN([C@H](C)CO)C(=O)c2cccc(NC(=O)C3CCCCC3)c2O[C@@H]1CN(C)Cc1ccc(Oc2ccccc2)cc1 | inactive | inactive
C[C@@H]1CN([C@@H](C)CO)C(=O)c2cccc(NS(=O)(=O)c3ccc(Cl)cc3)c2O[C@H]1CN(C)Cc1ccc(Oc2ccccc2)cc1 | inactive | inactive
C[C@H]1CN([C@@H](C)CO)C(=O)c2cc(NC(=O)Cc3ccccc3)ccc2O[C@H]1CN(C)S(=O)(=O)c1cn(C)cn1 | inactive | inactive
NC(=O)CN1CCCCCC1=O | inactive | inactive
C[C@@H]1CN([C@H](C)CO)C(=O)c2cc(NC(=O)C3CCCCC3)ccc2O[C@@H](C)CCCCO[C@H]1CN(C)C(=O)c1ccncc1 | inactive | inactive
C[C@@H]1CN([C@H](C)CO)C(=O)c2cc(NC(=O)Nc3ccccc3)ccc2O[C@@H]1CN(C)S(=O)(=O)c1cn(C)cn1 | inactive | inactive
C[C@@H]1CN([C@H](C)CO)C(=O)c2cc(NC(=O)NC3CCCCC3)ccc2O[C@@H](C)CCCCO[C@@H]1CN(C)S(=O)(=O)c1ccc(F)cc1 | inactive | inactive
COc1ccccc1CN1C(=O)c2ccccc2[C@@]2(Cc3ccccc3N(C(C)C)C2=O)[C@@H]1c1ccc(CO)cc1 | inactive | inactive
COC(=O)CC1C2(C)CC34OC5(C)OC6(C7C(=C(O)C(C)C)C(=O)OC(c8ccoc8)C7(C)C(OC(C)=O)C(OC(C)=O)C6(O5)C13C)C(OC(C)=O)C4(O)C2OC(=O)C(C)C (configuration not stated) | inactive | inactive
C[C@H](CO)N1C[C@H](C)[C@@H](CN(C)Cc2ccc(C(=O)Nc3ccccc3N)cc2)Oc2ccc(NC(=O)Nc3cccc4ccccc34)cc2C1=O | inactive | inactive
CC(C)(Sc1cc(C(C)(C)C)c(O)c(C(C)(C)C)c1)Sc1cc(C(C)(C)C)c(O)c(C(C)(C)C)c1 | inactive | inactive
C[C@H](CO)N1C[C@H](C)[C@@H](CN(C)Cc2ccc(Oc3ccccc3)cc2)Oc2ccc(NC(=O)CCCN(C)C)cc2C1=O | inactive | inactive
Cc1ccc(S(=O)(=O)N(C)C[C@@H]2OCCCC[C@H](C)Oc3ccc(NS(=O)(=O)c4ccc(F)cc4)cc3C(=O)N([C@H](C)CO)C[C@H]2C)cc1 | inactive | inactive
Cc1noc(C)c1S(=O)(=O)Nc1ccc2c(c1)C(=O)N([C@@H](C)CO)C[C@@H](C)[C@@H](CN(C)S(=O)(=O)c1ccccc1)O2 | inactive | inactive
CC(=O)Nc1nc(C(=O)O)cs1 | inactive | inactive
O=C(NC1CC1)[C@@H]1c2ccccc2C(=O)N(Cc2cc(C(F)(F)F)cc(C(F)(F)F)c2)[C@H]1c1ccc(CO)cc1 | inactive | inactive
COc1cccc(NC(=O)N(C)C[C@@H]2Oc3cc(Br)ccc3S(=O)(=O)N([C@@H](C)CO)C[C@H]2C)c1 | inactive | inactive
CC(C)NC(=O)N(C)C[C@H]1OCCCC[C@H](C)Oc2ccc(NC(=O)Nc3ccc(C(F)(F)F)cc3)cc2C(=O)N([C@H](C)CO)C[C@@H]1C | inactive | inactive
C[C@@H]1CCCCO[C@@H](CN(C)Cc2ccc3c(c2)OCO3)[C@@H](C)CN([C@H](C)CO)C(=O)c2cc(NC(=O)Nc3cccc4ccccc34)ccc2O1 | inactive | inactive
COc1ccc(S(=O)(=O)Nc2ccc3c(c2)C(=O)N([C@H](C)CO)C[C@@H](C)[C@@H](CN(C)C(=O)CCC(F)(F)F)OCCCC[C@@H](C)O3)cc1 | inactive | inactive
Cc1noc(C)c1NC(=O)Nc1ccc2c(c1)C(=O)N([C@H](C)CO)C[C@@H](C)[C@H](CN(C)C(=O)C1CCCCC1)OCCCC[C@@H](C)O2 | inactive | inactive
